Results from PubChem BioAssay AID1347434 (National Center for Advancing Translational Sciences (NCATS), 2020).
Where “and” joins values, the source holds several entries; their conditions need not be identical. Equal values may be shown once. Out of some 1,200 compounds screened, about 30 (2%) were called active. Not shown: some 23% with an inconclusive outcome. The call rests on the fitted dose curve; in most records, active means well fitted inhibition curve with a large enough effect; inconclusive means small, poorly fitted or top-dose-only effect; inactive means flat fitted curve, though single readings scatter. The list shows a part of the results.

These compounds were tested against Single-stranded DNA cytosine deaminase (Homo sapiens) (UniProt Q9GZX7) (assay: Confirmatory qHTS assay for inhibitors of Activation Induced Cytidine Deaminase (AID): AID signals). Conditions: recombinant AID, FRET deamination/UDG coupled fluorescence, 4 h; series mostly up to 115 µM; activity, negative = inhibition: at the top concentration.
How it was run: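 Read 1 (AID) was measured at 540 ex/590 em after a 30 min NaOH step. The reaction was AID (1 uM, 4/3x stock) with UDG, compound at final 7.32 nM - 114 uM for 10 min, then DJC20/DJC23 substrate for 4 hr at room temperature. A UDG read at 560/665 serves as counterscreen.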
On the % scale 0 is the no-effect control and ±100 the full control effect; potency means the concentration at half of the fitted maximal effect.

UniProt Q9GZX7, sequence (Q9GZX7 whole entry, looked up): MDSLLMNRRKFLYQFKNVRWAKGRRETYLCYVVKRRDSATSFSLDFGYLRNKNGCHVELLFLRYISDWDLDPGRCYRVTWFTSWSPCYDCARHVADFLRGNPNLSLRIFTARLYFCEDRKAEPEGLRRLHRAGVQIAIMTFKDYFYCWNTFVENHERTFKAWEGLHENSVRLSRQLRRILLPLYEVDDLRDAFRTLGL

| SMILES | activity, negative = inhibition | Potency |
| --- | --- | --- |
| Cc1cccc(N2CCN(C(=O)c3ccc(CS(=O)c4cccc(Cl)c4)o3)CC2)c1C (stereo not drawn) | inactive: -18.4% |  |
| CCCOc1ccc(-c2cc(C(F)(F)F)c(C#N)c(SCCC(=O)O)n2)cc1 | inactive: -18.2% |  |
| CC(=O)N1CCc2c(sc3c2c(=O)n(CCc2ccccc2)c(=O)n3Cc2ccccc2C)C1 | inactive: -11.6% |  |
| Cc1ccc(C)c(N2CCN(CCCNC(=O)c3ccc4nc(N5CCC(C)CC5)sc4c3)CC2)c1 | inactive: -23.7% |  |
| CC(C)(C)OC(=O)N1CCC(c2c(C(=O)NCc3ccccc3)cnn2-c2ccc(F)cc2)CC1 | inactive: -2.28% |  |
| O=C(c1cccn1-c1nnc(N2CCCCC2)s1)N1CCN(c2ccc(Cl)cc2)CC1 | inactive: -25.6% |  |
| CC(C)(C)C1CCc2c(sc(NC(=O)c3ccccc3F)c2C(=O)NCc2ccco2)C1 (stereo not drawn) | inactive: -7.85% |  |
| Cc1nn(C(=O)c2ccccc2)c(C)c1Sc1ccc(Cl)cc1 | inactive: -0.0901% |  |
| Cc1ccc(C2=NN(CC(=O)NCCCN(CC(C)C)CC(C)C)C(=O)CC2)cc1 | inactive: -12.2% |  |
| CCCN(CCC)CCNC(=O)c1cc2c(-c3ccc(Cl)cc3)nn(C)c2s1 | inactive: -17.5% |  |
| CSc1cccc(NC(=O)CC(c2cccs2)N2Cc3ccccc3C2=O)c1 (stereo not drawn) | inactive: -5.77% |  |
| CCCCN(CCCC)CCNC(=O)c1cn(CC)c2ccc(S(=O)(=O)N3CCc4ccccc4C3)cc2c1=O | inactive: -29% |  |
| Cc1ccc(C)c(CSc2ccc3nnc(CCNS(=O)(=O)c4ccccc4)n3n2)c1 | inactive: -16.2% |  |
| Cc1cccc(CSc2ccc3nnc(CCNS(=O)(=O)c4ccccc4)n3n2)c1 | inactive: -23.8% |  |
| O=C(NCCc1csc(-c2ccc(Cl)cc2)n1)c1cccs1 | inactive: -18.5% |  |
| CCN(CC)C(=O)CSc1nc(-c2ccccc2F)nc2c1Cc1c(CO)cnc(C)c1O2 | inactive: -20.7% |  |
| CN(c1ncnc2onc(-c3cccc(Cl)c3)c12)C1CCCCC1 | inactive: -20.3% |  |
| Cc1cccc(C)c1-n1ncc(C(=O)N2CCN(c3ccccc3)CC2)c1C1CCN(C(=O)OC(C)(C)C)CC1 | inactive: -20.5% |  |
| Cc1nc2nc(SCC(=O)NCc3ccccc3Cl)nn2c(C)c1Cc1ccccc1 | inactive: -17.7% |  |
| Fc1cc(Br)ccc1Nc1c2c(nc3nc(-c4cccs4)nn13)CCCC2 | inactive: -13.6% |  |
| CCn1cc(C(=O)NCc2ccccc2OC)c(=O)c2cc(S(=O)(=O)N3CCCCC3)ccc21 | inactive: -17.3% |  |
| Cc1ccc(-c2noc(CN(C(=O)c3ccc(C(C)(C)C)cc3)C(C)C)n2)cc1 | inactive: -14.1% |  |
| Cc1ccc(Nc2c3c(nc4ccccc24)CCC3)cc1F | inactive: -9.11% |  |
| CCOC(=O)C1=C(CN(CC)Cc2ccccc2)NC(=O)NC1c1ccc(Cl)cc1 (stereo not drawn) | inactive: -14% |  |

| SMILES | activity, negative = inhibition | Potency |
| --- | --- | --- |
| CCN(C(=O)c1nn(C)c2c1CSc1ccccc1-2)c1cccc(C)c1 | inactive: -6.9% |  |
| Cc1ccc(Cc2nc3ccccc3nc2SCC(=O)N2CCCCC2)cc1 | inactive: -2.18% |  |
| COc1ccc(CSc2nc3ccncc3n2Cc2nc(-c3ccc(OC)c(OC)c3)oc2C)cc1 | inactive: -8.72% |  |
| Cc1nc2c(-c3ccccc3)c(C)nn2c(C)c1CCC(=O)N1CCN(c2ccc(F)cc2)CC1 | inactive: -4.26% |  |
| O=C(NCCc1ccccc1)c1sc2ncccc2c1-n1cccc1 | inactive: -19.5% |  |
| Cc1ccccc1-c1nc(CS(=O)CC(=O)N2CCN(c3cc(Cl)ccc3C)CC2)c(C)o1 (stereo not drawn) | inactive: -9.58% |  |
| Cc1[nH]c2ccccc2c1C(c1ccccc1)c1cccs1 (stereo not drawn) | inactive: -10.5% |  |
| Clc1ccc(-c2noc3ncnc(NCCCN4CCN(c5ccccc5)CC4)c23)cc1 | inactive: 0.554% |  |
| CCc1ccccc1Nc1nn2c(=O)c3ccc(C(=O)NCc4cccs4)cc3nc2s1 | inactive: -5.96% |  |
| CCOc1ccc(-c2nc(CSCC(=O)N3CCN(c4cccc(C(F)(F)F)c4)CC3)c(C)o2)cc1 | inactive: -17.9% |  |
| Clc1cccc(N2CCN(c3ncnc4c3nc3n4CCCCC3)CC2)c1 | inactive: -20.2% |  |
| CCc1ccc(NC(=O)c2cc(C(C)=O)n3ccccc23)cc1 | inactive: 0.291% |  |
| Cc1cc(C)c(NC(=O)Cn2c(=O)n(Cc3ccc(C(=O)NCc4ccc5c(c4)OCO5)cc3)c(=O)c3ccccc32)c(C)c1 | inactive: -29.8% |  |
| Cc1ccc(NC(=O)c2oc3c(c2C)-c2[nH]ncc2CC3)c(Cl)c1 | inactive: 29% |  |
| Cn1cc(S(=O)(=O)N2CCCCCC2)cc1C(=O)N1CCN(c2cccc(C(F)(F)F)c2)CC1 | inactive: -12.9% |  |
| O=C1CCSC2(C(=O)N(Cc3ccc(F)cc3)c3ccccc32)N1c1cccc(F)c1 (stereo not drawn) | inactive: -1.44% |  |
| CCCCN(C)CC(O)Cn1cc(/C=C/C(=O)c2ccc(C)cc2)c2ccccc21 (stereo not drawn) | inactive: -19.7% |  |
| COc1ccc(N2CCN(C(=O)c3sc4nc5n(c(=O)c4c3C)CCC5)CC2)cc1 | inactive: -13.6% |  |
| CCn1cc(C(=O)NCCCOC(C)C)c(=O)c2cc(S(=O)(=O)N(C)C3CCCCC3)ccc21 | inactive: -14.5% |  |
| COc1ccccc1N1CCN(CCCNC(=O)c2cnn(-c3ccc(C)c(C)c3)c2C2CCN(C(=O)OC(C)(C)C)CC2)CC1 | inactive: -23.4% |  |
| CCOC(=O)C1=C(CN2CCN(c3ccc(C)cc3C)CC2)NC(=O)NC1c1ccc(OC)cc1 (stereo not drawn) | inactive: -26.3% |  |
| Cc1ccc(-n2c(=O)c3oc4ccccc4c3n(Cc3cccc(F)c3)c2=O)cc1C | inactive: -5.86% |  |
| COc1ccc(-c2cc(C(F)(F)F)nc(SCC(=O)N(C)Cc3ccccc3)n2)cc1 | inactive: -7.92% |  |
| O=C(NCCn1cc(SCc2ccccc2F)c2ccccc21)c1cccs1 | inactive: 13.6% |  |

| SMILES | activity, negative = inhibition | Potency |
| --- | --- | --- |
| COc1cccc(Cn2nnc3c(=O)[nH]c(C4CCN(C(=O)c5ccccc5Cl)CC4)nc32)c1 | inactive: -12.1% |  |
| O=C(NCCc1ccccc1Cl)c1sc2ncccc2c1-n1cccc1 | inactive: -15.1% |  |
| CN(C)CCNc1ncnc2c1cnn2-c1cccc(Cl)c1 | inactive: -20.9% |  |
| Cc1ccc(-n2cc(-c3ccccc3)nc2S(=O)(=O)CC(=O)Nc2ccc(F)cc2)cc1 | inactive: -15.7% |  |
| CCc1cccc(-n2c(C)nc3c(cnn3-c3ccc(C)c(C)c3)c2=O)c1 | inactive: -7.64% |  |
| COc1cccc2sc(N(Cc3cccnc3)C(=O)Cc3ccccc3)nc12 | inactive: 3.59% |  |
| Cc1nc(Nc2ccc(Cl)cc2)cc(-c2ccccc2)n1 | inactive: -16.1% |  |
| Cc1ccc(-c2nnc(Nc3ccc(O)cc3)c3ccccc23)cc1S(=O)(=O)NC(C)(C)CO | inactive: -17.1% |  |
| COc1ccc(Nc2cc(C)c3cc(NC(=O)COc4cccc(C)c4)ccc3n2)cc1 | inactive: -4.04% |  |
| Cc1ccc(Cl)cc1N1CCN(C(=O)COc2cc(=O)n(C)c3ccccc23)CC1 | inactive: -14% |  |
| COc1ccc(OC)c(NC(=O)CSc2nccn2-c2cc(C)cc(C)c2)c1 | inactive: -12.5% |  |
| CCCn1cc(S(=O)(=O)c2ccc(OC)cc2)c(=O)c2cc(F)c(N3CCCCCC3)cc21 | inactive: -18% |  |
| CCn1cc(S(=O)(=O)c2ccc(C)cc2C)c(=O)c2cc(F)c(N3CCCC3)cc21 | inactive: -13.2% |  |
| COC(=O)c1c(NC(=O)COc2ccc(OC)cc2)sc2c1CCC(C)C2 (stereo not drawn) | inactive: 10.7% |  |
| CCCCn1cc(S(=O)(=O)c2ccccc2)c(=O)c2cc(F)c(N3CCC(C)CC3)cc21 | inactive: -5.39% |  |
| Cc1cc(N(C)Cc2ccccc2)n2nc(-c3ccc(C(C)(C)C)cc3)nc2n1 | inactive: -20.3% |  |
| Cc1ccc(C(C)C)c(OCC(=O)NCC2(N3CCOCC3)CCCCC2)c1 | inactive: -17% |  |
| CCOc1ccc(-c2n[nH]c3c2C(c2ccccc2OC)N(c2ccc(Br)cc2)C3=O)cc1 (stereo not drawn) | inactive: -3.54% |  |
| CCOC(=O)c1ccc(CSc2nnc3cc(C)c4ccccc4n23)cc1 | inactive: -26.7% |  |
| CN(C)c1ccc(-c2nnc3n(Cc4ccccc4)c(=O)c4ccccc4n23)cc1 | inactive: -21.5% |  |
| Cc1nc2nc(SCC(=O)NCCc3ccc(Cl)cc3)nn2c(C)c1Cc1ccccc1Cl | inactive: -26.8% |  |
| CCc1nn(C(C)C(=O)N2CCN(c3cccc(C(F)(F)F)c3)CC2)c(=O)c2cc3occc3n12 (stereo not drawn) | inactive: -13% |  |
| Cc1ccc(-n2ncc(C(=O)NCCc3ccccc3)c2C2CCN(C(=O)OC(C)(C)C)CC2)c(C)c1 | inactive: -16% |  |
| CCc1ccc2c(c1)c(=O)c(S(=O)(=O)c1ccc(Cl)cc1)cn2CC | inactive: -7.45% |  |

| SMILES | activity, negative = inhibition | Potency |
| --- | --- | --- |
| CCOC(=O)C1=C(C)NC(=O)NC1c1cn(-c2ccccc2)nc1-c1ccc(OCC)cc1 (stereo not drawn) | inactive: -11% |  |
| Cc1ccccc1Nc1c(-c2ccc(N3CCOCC3)cc2)nc2ccccn12 | inactive: 3.96% |  |
| CC(C)CCN(Cc1ccco1)C(=O)c1cc2c(s1)-c1ccccc1OC2 | inactive: -14.3% |  |
| CCc1ccccc1N(C)C(=O)c1sc2nc3n(c(=O)c2c1C)CCCCC3 | inactive: -12.4% |  |
| O=C(NCc1cccs1)c1ccc(CSc2nc3ccncc3n2Cc2ccccc2F)cc1 | inactive: -4.38% |  |
| Cc1ccc(Cl)cc1N1CCN(C(=O)c2ccc3c(c2)N(Cc2ccccc2)CCS3)CC1 | inactive: -5.09% |  |
| Cc1ccc(-c2nc(C(=O)N3CCN(c4ccccc4)CC3)c3n2CCCCC3)cc1 | inactive: -10.4% |  |
| Cc1ccc(CN(Cc2ccco2)C(=O)COc2cccc(C)c2C)o1 | inactive: -21.8% |  |
| CC(C)(Sc1ccc(CCN(CCCCC2CCCCC2)C(=O)NC2CCCCC2)cc1)C(=O)O |  | active: 31.6 µM and active: 112 µM |
| O=C(CN(c1cc(C(F)(F)F)ccc1Cl)S(=O)(=O)c1ccccc1)NCCc1ccccc1 | inactive: -2.51% |  |
| CCCCCn1c(CCCNC(=O)c2cccc(C)c2)nc2ccccc21 | inactive: -19.1% |  |
| Cc1ccc(CN(Cc2ccco2)C(=O)c2ccc(Cl)cc2Cl)cc1 | inactive: -2.65% |  |
| CCOC(=O)c1c(C)oc2nc(C)nc(N3CCN(c4ccccc4F)CC3)c12 | inactive: -4.5% |  |
| Cc1[nH]n2c(=O)cc(-c3ccc(Cl)cc3)nc2c1-c1ccccc1 | inactive: -18.7% |  |
| CCc1ccc(NS(=O)(=O)c2ccc3oc(=O)c4ncn(CC)c4c3c2)cc1 | inactive: -15.8% |  |
| CCn1c(SCc2ccccc2C)nc(=O)c2c(C(=O)OC)cc(C3CC3)nc21 | inactive: -11.2% |  |
| CCN(c1cccc(C)c1)S(=O)(=O)c1ccc(-n2cccn2)cc1 | inactive: 2.55% |  |
| Cc1[nH]n(-c2ccccc2)c(=O)c1C(c1cc(Cl)ccc1O)c1c(C)[nH]n(-c2ccccc2)c1=O | inactive: 5.52% |  |
| COCc1cc(C)nc2sc3c(c12)NC(c1ccccc1C(=O)O)N(c1cccc(C(F)(F)F)c1)C3=O (stereo not drawn) | inactive: -10.6% |  |
| COc1ccc(-c2noc(CN(C(=O)c3ccccc3Cl)C(C)C)n2)cc1 | inactive: -0.73% |  |
| Cc1c(C(=O)Nc2ccc(F)cc2F)oc2c1-c1nn(Cc3c(F)cccc3Cl)cc1CC2 | inactive: 88.7% |  |
